The values below come from US20260364168A1, “USE OF PROTEIN KINASE C (PKC) ACTIVATING COMPOUNDS AS AN ADJUVANT” (priority 2022, published 2026).

Structures are written as SMILES.

The test concerns NFκB. Briefly: block of PKC activator-induced NFκB activation by PKC inhibitors (HeLa-NFκB luciferase reporter cells). The test is classed as cell-based. The method, then:
A HeLa-NFκB luciferase reporter cell line (Wuxi Biology) was used to assess a group of PKC activator compounds for their ability to activate NFκB-driven transcription. Two sets of cells at 20000 cells/well were plated, grown overnight, and then treated for 16 h at 37 °C with DMSO, 6 doses of each compound, or TNF-α (final concentration of 10 ng/mL, positive control) in triplicates. One set of cells was assayed for luciferase activity (Promega, Cat #E1500) and the other set was assayed to determine the number of viable cells (for cell number normalization) using CellTiter-Glo (CTG) kit (Promega, Cat #G7570) according to manufacture's procedures. Normalized data (luciferase value/CTG value) were analyzed using GraphPad Prism5 to calculate EC50 for each compound (see Table 3).
To assess if activation of PKC is required for these compounds to activate NFκB, several PKC inhibitors including broad-spectrum and conventional PKC inhibitors were tested. In the assay described above, PKC inhibitors were added at the same time as the PKC activator compounds.
Background: In a reporter assay the amount or activity of a reporter protein is the signal.
For `COc1ccc2c(c1)c(C1=C(c3c[nH]c4ccccc34)C(=O)NC1=O)cn2CCCN(C)C` [Compound G66983], the “block of NFκB activation induced by PKC activator compounds” value is “completely block”.
Under `Cn1c2ccccc2c2c3c(c4c5ccccc5n(CCC#N)c4c21)CNC3=O` [Gö6976] stands “unable to block”; under `CN1CCN(c2nc(C3=C(c4c[nH]c5ccccc45)C(=O)NC3=O)c3ccccc3n2)CC1` [Sotrastaurin], “completely block”.
